We go through 88 compounds from publication PMC4336329 (PLoS ONE, 2015).

Molecules are shown by their SMILES. Among all 310,000 compounds or so, about 14,000 (4.5%) showed an effect of 50% or more. The effect is printed as a negative number. This is one part of the list. Where a SMILES comes first, the peptide text is derived from it. The star is where a group is joined. Boc = CC(C)(C)OC(=O)*; OtBu = CC(C)(C)O*
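Further: peak tail current of the secondary pulse compared with the same well before compound.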

human ether-à-go-go-related gene (hERG) potassium channel, sequence (Q12809 whole entry, looked up): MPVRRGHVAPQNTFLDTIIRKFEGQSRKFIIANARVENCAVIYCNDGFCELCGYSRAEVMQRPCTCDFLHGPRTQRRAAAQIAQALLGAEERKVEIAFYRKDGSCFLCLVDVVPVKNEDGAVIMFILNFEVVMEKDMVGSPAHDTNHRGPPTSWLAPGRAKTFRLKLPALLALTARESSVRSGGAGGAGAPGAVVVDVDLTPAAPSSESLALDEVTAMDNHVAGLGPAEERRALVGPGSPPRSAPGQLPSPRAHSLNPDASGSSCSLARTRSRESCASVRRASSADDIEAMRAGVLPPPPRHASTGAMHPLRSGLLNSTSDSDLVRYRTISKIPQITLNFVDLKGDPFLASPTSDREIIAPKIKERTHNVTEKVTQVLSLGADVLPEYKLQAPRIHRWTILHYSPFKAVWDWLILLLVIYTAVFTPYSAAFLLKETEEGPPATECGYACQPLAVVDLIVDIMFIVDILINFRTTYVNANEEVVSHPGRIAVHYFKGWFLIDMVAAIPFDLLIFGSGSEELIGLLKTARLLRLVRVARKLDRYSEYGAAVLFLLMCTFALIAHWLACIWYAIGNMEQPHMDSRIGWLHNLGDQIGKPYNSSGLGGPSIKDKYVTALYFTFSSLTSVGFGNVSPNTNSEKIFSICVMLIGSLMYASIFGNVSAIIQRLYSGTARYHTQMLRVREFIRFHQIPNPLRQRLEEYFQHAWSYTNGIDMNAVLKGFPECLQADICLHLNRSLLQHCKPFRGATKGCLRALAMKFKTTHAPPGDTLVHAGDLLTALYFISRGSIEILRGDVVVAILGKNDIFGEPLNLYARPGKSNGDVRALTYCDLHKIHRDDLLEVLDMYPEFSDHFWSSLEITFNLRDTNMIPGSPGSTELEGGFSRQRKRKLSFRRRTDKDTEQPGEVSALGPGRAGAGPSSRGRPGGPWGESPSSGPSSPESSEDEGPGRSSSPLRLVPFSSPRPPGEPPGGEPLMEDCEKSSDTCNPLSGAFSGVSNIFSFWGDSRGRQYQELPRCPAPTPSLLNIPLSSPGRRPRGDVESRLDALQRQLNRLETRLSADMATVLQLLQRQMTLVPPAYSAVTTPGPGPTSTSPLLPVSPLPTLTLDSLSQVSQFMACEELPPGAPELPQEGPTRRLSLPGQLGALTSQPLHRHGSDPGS

The experiment concerns the target human ether-à-go-go-related gene (hERG) potassium channel (human, UniProt Q12809). Description: primary screen, population patch clamp on CHO cells stably expressing hERG.
Take `COCCN(CC1CCCN(C2Cc3ccccc3C2)C1)C(=O)c1cccs1` (stereo not shown): the “hERG current change (%, negative = inhibition) at 10uM” value was -68.5%.
`CCN(C(=O)CSc1nc2ccccc2c(=O)n1-c1ccc(C)cc1)C1CCS(=O)(=O)C1` (stereo not shown): the “hERG current change (%, negative = inhibition) at 10uM” value is -11.6%.
For `CN(C)c1nc(N(C)C)nc(N(C#N)CCOc2ccccc2)n1`, the “hERG current change (%, negative = inhibition) at 10uM” value is on record as -4.58%.
Under `Cc1cccc(C(=O)NC(C)C(=O)NC(c2nc3ccccc3[nH]2)C(C)C)c1` (stereo not shown) stands -7.29%.
Then `CCn1c(C)cc(/C=C2/SC(=O)N(CC(=O)N3CCCC3)C2=O)c1C`, with -14.8%; and `COc1ccc(C(=O)NC2CC2)cc1OC1CCN(Cc2ccc(Cl)cc2)CC1`, with -78.8%.
Under `Cc1cc(C)nc(NNC(=O)NC2CCCCC2)n1` stands 2.31%.
Consider `CCCCCCC(C)OC(=O)c1ccccc1C(=O)O` (stereo not shown), for which the “hERG current change (%, negative = inhibition) at 10uM” value came out at 16%.
Regarding `COc1cc(/C=C2\SC(=S)N(CCC(=O)Nc3cccc(O)c3)C2=O)cc(OC)c1OC`, the “hERG current change (%, negative = inhibition) at 10uM” value came out at 16.3%.
Then `O=P(O)(Oc1ccccc1)OC(c1ccccc1)C(F)(F)F` (stereo not shown), with 22.2%; and `COc1ccccc1/C=C/C(=O)OCC(=O)NNC(=O)c1ccccc1`, with -1.5%; and `O=C(CSCc1ccc(Cl)cc1Cl)Nc1c[nH]c(=O)[nH]c1=O`, with 5.48%.
Under `O=C(Cn1c(=O)oc2ccccc21)NCC1COc2ccccc2O1` (stereo not shown) stands 16.6%.
On to `CC(C(=O)Nc1ccc2c(c1)OCCO2)n1nnc(-c2ccccc2)n1` (stereo not shown), for which the “hERG current change (%, negative = inhibition) at 10uM” value was found to be 10.7%.
Then `CCn1cc(C(=O)N2CCCCC2)c(=O)c2cc(S(=O)(=O)N3CCC(C)CC3)ccc21`, with -18.4%.
Then `Cc1cccc(N(C(=O)Cn2nnc3ccccc32)C(C(=O)NC(C)(C)C)c2ccsc2)c1C` (stereo not shown), with 19.7%; and `CCn1cc(S(=O)(=O)NCCc2ccc(F)cc2)cn1`, with -8.3%.
Under `O=C(CNS(=O)(=O)c1cccs1)N1CCCC1` stands 14.9%; under `O=C(NN1C(=O)c2ccccc2NC1c1cccnc1)c1ccccc1` (stereo not shown), 12.5%; under `CCN(c1ccccc1)S(=O)(=O)c1ccc(Cl)c(C(=O)N2CCCC2)c1`, 5.04%.
`Cc1ccc(Cl)cc1NC(=O)c1ccccc1OCC(=O)Nc1ccc(Cl)cc1`: the “hERG current change (%, negative = inhibition) at 10uM” value is recorded as -23.3%.
Under `CCC(=O)c1ccc(OCC(O)Cn2nc(C)c(C(C)=O)c2C)cc1` (stereo not shown) stands -36.7%; under `CCOc1ccc(CCNC(=O)c2cccc(S(=O)(=O)N3CCOCC3)c2)cc1OCC`, -6.89%.
Then `COc1ccc(NC(=O)c2ccc(=O)[nH]c2)cc1S(=O)(=O)N1CCCCC1`, with -0.587%.
Then `COCCNC(=O)/C(=C/c1ccccc1Cl)c1ccccc1`, with -0.406%; and `O=C1c2ccccc2C(=O)N1CCc1nc2ccccc2c(=O)n1CCCn1ccnc1`, with -62.5%; and `Cc1sc2nc(C(C)C)oc(=O)c2c1C`, with 18%.
For the compound `COc1ccccc1CNC(=O)CCNC(=O)Cn1ccc2ccccc2c1=O`, the “hERG current change (%, negative = inhibition) at 10uM” value was found to be 7.4%.
Under `Cc1ccc(N2C(=S)SC3CS(=O)(=O)CC32)cc1` (stereo not shown) stands -0.491%; under `Cc1nc2c3c(sc2c(=O)[nH]1)NC(=O)CC3c1ccccc1Cl` (stereo not shown), 0.707%.
Turning to `CCOC(=O)c1c(C)[nH]c(C(=O)OCC(=O)c2ccccc2)c1C`, the “hERG current change (%, negative = inhibition) at 10uM” value is -2%.
For the compound `Cc1ccc(NC(=O)NNS(=O)(=O)c2ccc(Br)cc2)cc1`, the “hERG current change (%, negative = inhibition) at 10uM” value was found to be 19.6%.
On to `COc1ccccc1-n1c(SCC(=O)Nc2cccc(S(N)(=O)=O)c2)nc2ccccc2c1=O`, for which the “hERG current change (%, negative = inhibition) at 10uM” value worked out at 8.61%.
Under `CCN(CC)CC.CCn1c(=S)sc2c(=O)n(-c3ccccc3)c(=S)[nH]c21` stands 23.4%; under `N=C1c2ccccc2CN1c1ccc(F)c([N+](=O)[O-])c1`, -22%; under `CC(=O)Nc1ccc(NS(=O)(=O)c2cc(-c3n[nH]c(=O)c4ccccc34)ccc2C)cc1`, 6.61%.
Take `CSCSC1=C(C#N)C(c2ccc(Cl)cc2)C(C(C)=O)=C(C)N1` (stereo not shown): the “hERG current change (%, negative = inhibition) at 10uM” value was -23.5%.
Then `CCC1CCCCN1C(=O)c1ccc(OC2CCN(C(=O)CCOC)CC2)cc1` (stereo not shown), with 11.9%; and `CNC(=O)Oc1cccc2ccccc12`, with 13.1%.
Regarding `COc1ccccc1-n1c(=O)c2c3c(sc2n2c(SC(C)C)nnc12)CCC3`, the “hERG current change (%, negative = inhibition) at 10uM” value was -4.22%.
Under `Cc1cc(OCCCCCN2CCCC2)ccc1Cl.O=C(O)C(=O)O` stands -77.2%; under `COc1ccc(CCNC(=O)C(=O)NCC2CCCO2)cc1` (stereo not shown), -0.535%.
Regarding `CCCCCCNC(=O)c1cc(-c2ccco2)nc2ccccc12`, the “hERG current change (%, negative = inhibition) at 10uM” value was -11.5%.
Take `Cc1ccc(Nc2c([N+](=O)[O-])cc(C(=O)N3CC(=O)Nc4ccccc43)cc2[N+](=O)[O-])c(C)c1`: the “hERG current change (%, negative = inhibition) at 10uM” value amounted to 15.2%.
Under `Cc1c(C(=O)Nc2c(C)n(C)n(-c3ccccc3)c2=O)oc2ccc(Cl)cc12` stands -51.3%; under `Nc1[nH]n(-c2ccccc2)c(=O)c1N=Nc1ccccc1`, -6.53%; under `CCc1ccccc1NC(=O)N1CCCc2ccccc21`, 12.9%.
For the compound `Cc1nn(-c2ccccc2)c(Cl)c1C(=O)NCC(=O)O`, the “hERG current change (%, negative = inhibition) at 10uM” value worked out at 24.5%.
Then `COc1nccc(C(F)(F)F)c1C(=O)Nc1ccc(Cl)cc1`, with 1.49%.
`COc1ccc2oc(=O)c(C(=O)N3CCN(C(=O)c4ccccc4)CC3)cc2c1`: the “hERG current change (%, negative = inhibition) at 10uM” value is -1.64%.
Regarding `COc1ccc(Cl)cc1C(=O)OCC(=O)c1ccc[nH]1`, the “hERG current change (%, negative = inhibition) at 10uM” value was determined as 12.6%.
`Cc1ccc(-c2cc(C)nc3nc(N)nn23)cc1`: the “hERG current change (%, negative = inhibition) at 10uM” value was -0.72%.
Under `O=C(CCS(=O)(=O)c1ccc(F)cc1)Nc1nnc(-c2ccc(F)cc2)o1` stands -10.7%; under `Cc1cc(C(=O)N2CCN(C(=O)C3CCCO3)CC2)no1` (stereo not shown), 5.96%.
For the compound `COc1ccc2c(c1OC)C(=O)OC2CC(=O)c1ccc(O)c(O)c1` (stereo not shown), the “hERG current change (%, negative = inhibition) at 10uM” value worked out at 21.8%.
Then `C=CCc1c(C)nc(N2CCSCC2)[nH]c1=O`, with 14.5%; and `O=C(NNc1nc(-c2ccccc2)cs1)c1ccc(F)cc1`, with 11.4%; and `O=C(CCN1CCN(c2ccccc2)CC1)Nc1ccccc1`, with -22.9%.
Under `O=[N+]([O-])c1ccc(CNc2ccc(F)cc2)s1` stands -28.5%.
Under `O=C1NC(=S)N(c2ccc(Br)cc2)C(=O)/C1=C/N1CCN(C(=O)c2ccco2)CC1` stands 23%; under `CC(=O)c1ccc(NC(=O)C2CC2c2ccccc2)cc1` (stereo not shown), 3.25%.
For the compound `C=CCOC(=O)CCC(=O)Nc1cc(OC)nc(OC)n1`, the “hERG current change (%, negative = inhibition) at 10uM” value came to 7.4%.
Under `O=C(Nc1cc(Cl)cc(Cl)c1)C(NCC1CCCO1)c1ccccc1` (stereo not shown) stands -38.9%.
Take `CCCn1c(CN2CCN(C(=O)OCC)CC2)nc2cc(NC(C)=O)ccc21`: the “hERG current change (%, negative = inhibition) at 10uM” value is listed as 12.8%.
Under `COc1ccc(NC(=O)COC(=O)c2ccc(S(=O)(=O)N3CCCC3)cc2)cc1OC` stands 14.9%.
Then `COc1ccc(/C=C/C(=O)C2CC2)cc1COc1cccc(C)c1C`, with 7.8%; and `NC(=O)C1CCN(C(=O)CN2C(=O)c3ccccc3S2(=O)=O)CC1`, with 7.87%.
Under `Cc1csc(=O)n1CC(=O)OCC(=O)Nc1cc([N+](=O)[O-])ccc1Cl` stands -4.67%; under `O=[N+]([O-])c1ccc(N2CCCCC2)s1`, 6.32%.
Regarding `COCCCNC(=O)c1ccc(Cn2c(=O)c3ccccc3n(Cc3ccccc3C)c2=O)cc1`, the “hERG current change (%, negative = inhibition) at 10uM” value stood at 16.2%.
Consider `Cc1ccccc1Nc1nnc(SCC(=O)NC(=O)NCc2ccco2)s1`, for which the “hERG current change (%, negative = inhibition) at 10uM” value was determined as 5.78%.
In the case of `CCOc1ccc(N=C2NC(=O)S/C2=C\c2ccc(O)cc2)cc1`, the “hERG current change (%, negative = inhibition) at 10uM” value is given as 8.13%.
Then `CN1/C(=C\C(=O)CSc2nncn2C)C(C)(C)c2ccccc21`, with 1.36%; and `CC(=O)c1c(C)[nH]c(C(=O)CSc2nnc(-c3cccs3)n2Cc2ccccc2)c1C`, with -25.6%.
Under `CCOC(=O)c1ccc(NC(=O)c2c(NC(=O)CCC(=O)O)sc3c2CCCCC3)cc1` stands 16.9%.
For `O=C(O)Cc1cccc2ccccc12`, the “hERG current change (%, negative = inhibition) at 10uM” value is 16.6%.
Then `C=CCNCCOCCOc1ccccc1-c1ccccc1.O=C(O)C(=O)O`, with -33.7%; and `CCOC(=O)C1=C(C)NC2=C(C(=O)CCC2)C1c1cn(Cc2ccc(Cl)cc2Cl)nc1-c1ccccc1` (stereo not shown), with -8.5%.
Then `COc1ccc(-c2cccc(C(=O)NCC(=O)O)c2)cc1`, with 7.91%.
Then `COC(=O)C(Cc1ccc(O)cc1)NC(=O)C(CC(=O)OC(C)(C)C)NC(=O)OC(C)(C)C` (stereo not shown) (Boc-Asp(OtBu)-Tyr-OMe; configuration not given here), with -3.05%; and `Cc1cc(=O)[nH]c2ccc(S(=O)(=O)NCc3ccccc3)cc12`, with -32.5%; and `COc1cc2c(cc1NC(=O)c1cccc([N+](=O)[O-])c1C)oc1ccccc12`, with -8.76%.
Turning to `CC1=NN(C(=O)c2cccc(Cn3nc(C)c([N+](=O)[O-])c3C)c2)C(O)(C(F)(F)F)C1` (stereo not shown), the “hERG current change (%, negative = inhibition) at 10uM” value is listed as 0.484%.
`CC(C)CCNC(=O)CN1C(=O)CN=C(c2ccccc2)c2ccccc21`: the “hERG current change (%, negative = inhibition) at 10uM” value is listed as -4.29%.
Then `O=C(NCCS(=O)(=O)N1CCCCC1)c1ccccc1`, with -5.44%.
Then `O=C(Nc1ccccc1)c1ccc(S(=O)(=O)N2CCCC2)cc1`, with -3.46%.
Then `Cc1ccc(/C=N/NC(=O)c2csc3c2CCCC3)cc1`, with 6.73%.
With `CCn1ncc(Br)c1C(=O)NC(C)c1ccccc1` (stereo not shown), the “hERG current change (%, negative = inhibition) at 10uM” value worked out at 3.91%.
